# Experimental data as given in the supplement of paper PMC8728848.
# The other results are listed elsewhere or left out.
# B1: TIM1 (protein)
# chain: ADGIQSVKVGGEAGPSVTLPCHYSGAVTSMCWNRGSCSLFTCQNGIVWTNGTHVTYRKDTRYKLLGDLSRRDVSLTIENTAVSDSGVYCCRVEHRGWFNDMKITVSLEIVPPHHHHHH
# How the values were obtained:
# Test in all cases: glycan array binding signal (z-score within array); higher = stronger binding
# Conditions in all cases: glycan notation: IUPAC condensed, linker removed
# [1] = target: Neu5Ac(a2-6)GlcNAc(b1-4)GlcNAc(b1-4)GlcNAc
# Summary of the method: (§1)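 Glycan array data were curated from 3228 arrays in the Consortium for Functional Glycomics database and kept only where the protein sequence was available. Glycan names were converted to IUPAC-condensed notation, and columns mapping to the same glycan were averaged. The binding signal is a within-array Z-score, averaged across arrays of the same protein sequence at different concentrations or buffers and across linkers. Negative Z-scores can be read as non-binding.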
# Neu5Ac(a2-8)Neu5Ac = target: Neu5Ac(a2-8)Neu5Ac
# Summary of the method: as §1
# [2] = target: Neu5Ac(a2-8)Neu5Ac(a2-3)Gal(b1-3)GalNAc(b1-4)[Neu5Ac(a2-3)]Gal(b1-4)Glc
# Summary of the method: as §1
# [3] = target: Neu5Ac(a2-8)Neu5Ac(a2-3)Gal(b1-3)GalNAc(b1-4)[Neu5Ac(a2-8)Neu5Ac(a2-3)]Gal(b1-4)Glc
# Summary of the method: as §1
# [4] = target: Neu5Ac(a2-8)Neu5Ac(a2-3)Gal(b1-4)Glc
# Summary of the method: as §1
# [5] = target: Neu5Ac(a2-8)Neu5Ac(a2-3)Gal(b1-4)GlcNAc
# Summary of the method: as §1
# [6] = target: Neu5Ac(a2-8)Neu5Ac(a2-3)[Gal(b1-3)GalNAc(b1-4)]Gal(b1-4)Glc
# Summary of the method: as §1
# [7] = target: Neu5Ac(a2-8)Neu5Ac(a2-3)[GalNAc(b1-4)]Gal(b1-4)Glc
# Summary of the method: as §1
# [8] = target: Neu5Ac(a2-8)Neu5Ac(a2-8)Neu5Ac
# Summary of the method: as §1
# [9] = target: Neu5Ac(a2-8)Neu5Ac(a2-8)Neu5Ac(a2-3)Gal(b1-4)Glc
# Summary of the method: as §1
# [10] = target: Neu5Ac(a2-8)Neu5Ac(a2-8)Neu5Ac(a2-3)[Gal(b1-3)GalNAc(b1-4)]Gal(b1-4)Glc
# Summary of the method: as §1
# [11] = target: Neu5Ac(a2-8)Neu5Ac(a2-8)Neu5Ac(a2-3)[GalNAc(b1-4)]Gal(b1-4)Glc
# Summary of the method: as §1
# [12] = target: Neu5Ac(a2-8)Neu5Ac(a2-8)Neu5Ac(a2-8)Neu5Ac(a2-3)[GalNAc(b1-4)]Gal(b1-4)Glc
# Summary of the method: as §1
# [13] = target: Neu5Ac(a2-8)Neu5Gc(a2-3)Gal(b1-4)GlcNAc
# Summary of the method: as §1
# [14] = target: Neu5Ac(b2-6)Gal(b1-4)GlcNAc
# Summary of the method: as §1
# Neu5Ac(b2-6)GalNAc = target: Neu5Ac(b2-6)GalNAc
# Summary of the method: as §1
# [15] = target: Neu5Ac9Ac(a2-3)Gal(b1-3)GlcNAc
# Summary of the method: as §1
# [16] = target: Neu5Ac9Ac(a2-3)Gal(b1-4)GlcNAc
# Summary of the method: as §1
# [17] = target: Neu5Ac9Ac(a2-6)Gal(b1-4)GlcNAc
# Summary of the method: as §1
# [18] = target: Neu5Gc(a2-3)Gal(b1-3)GlcNAc
# Summary of the method: as §1
# [19] = target: Neu5Gc(a2-3)Gal(b1-3)[Fuc(a1-4)]GlcNAc
# Summary of the method: as §1
# Neu5Gc(a2-3)Gal(b1-4)Glc = target: Neu5Gc(a2-3)Gal(b1-4)Glc
# Summary of the method: as §1
# [20] = target: Neu5Gc(a2-3)Gal(b1-4)GlcNAc
# Summary of the method: as §1
# [21] = target: Neu5Gc(a2-3)Gal(b1-4)GlcNAc(b1-3)Gal(b1-4)GlcNAc(b1-2)Man(a1-3)[Neu5Gc(a2-3)Gal(b1-4)GlcNAc(b1-3)Gal(b1-4)GlcNAc(b1-2)Man(a1-6)]Man(b1-4)GlcNAc(b1-4)GlcNAc
# Summary of the method: as §1
# [22] = target: Neu5Gc(a2-3)Gal(b1-4)[Fuc(a1-3)]GlcNAc
# Summary of the method: as §1
# [23] = target: Neu5Gc(a2-6)Gal(b1-4)GlcNAc
# Summary of the method: as §1
# Neu5Gc(a2-6)GalNAc = target: Neu5Gc(a2-6)GalNAc
# Summary of the method: as §1
# [24] = target: Neu5Gc(a2-8)Neu5Ac(a2-3)Gal(b1-4)GlcNAc
# Summary of the method: as §1
# [25] = target: Neu5Gc(a2-8)Neu5Gc(a2-3)Gal(b1-4)GlcNAc
# Summary of the method: as §1
# [26] = target: Neu5Gc(a2-8)Neu5Gc(a2-3)Gal(b1-4)GlcNAc(b1-3)Gal(b1-4)GlcNAc
# Summary of the method: as §1
# [27] = target: Neu5Gc(a2-8)Neu5Gc(a2-6)Gal(b1-4)GlcNAc
# Summary of the method: as §1
# [28] = target: Neu5Gc(b2-6)Gal(b1-4)GlcNAc
# Summary of the method: as §1
binder,measurement,setting,value
B1,glycan array binding signal (z-score),[1],-0.254
same,glycan array binding signal (z-score),Neu5Ac(a2-8)Neu5Ac,-0.103
same,glycan array binding signal (z-score),[2],-0.24
same,glycan array binding signal (z-score),[3],-0.158
same,glycan array binding signal (z-score),[4],-0.235
same,glycan array binding signal (z-score),[5],-0.2
same,glycan array binding signal (z-score),[6],-0.133
same,glycan array binding signal (z-score),[7],-0.183
same,glycan array binding signal (z-score),[8],-0.229
same,glycan array binding signal (z-score),[9],-0.195
same,glycan array binding signal (z-score),[10],-0.197
same,glycan array binding signal (z-score),[11],-0.281
same,glycan array binding signal (z-score),[12],-0.224
same,glycan array binding signal (z-score),[13],-0.244
same,glycan array binding signal (z-score),[14],-0.075
same,glycan array binding signal (z-score),Neu5Ac(b2-6)GalNAc,-0.287
same,glycan array binding signal (z-score),[15],-0.192
same,glycan array binding signal (z-score),[16],-0.213
same,glycan array binding signal (z-score),[17],-0.035
same,glycan array binding signal (z-score),[18],-0.177
same,glycan array binding signal (z-score),[19],-0.216
same,glycan array binding signal (z-score),Neu5Gc(a2-3)Gal(b1-4)Glc,0.036
same,glycan array binding signal (z-score),[20],-0.213
same,glycan array binding signal (z-score),[21],-0.111
same,glycan array binding signal (z-score),[22],-0.159
same,glycan array binding signal (z-score),[23],-0.002
same,glycan array binding signal (z-score),Neu5Gc(a2-6)GalNAc,-0.001
same,glycan array binding signal (z-score),[24],-0.137
same,glycan array binding signal (z-score),[25],-0.191
same,glycan array binding signal (z-score),[26],-0.218
same,glycan array binding signal (z-score),[27],-0.218
same,glycan array binding signal (z-score),[28],-0.189
